From article PMC8694192, “Synthesis and biological evaluation of new derivatives of thieno-thiazole and dihydrothiazolo-thiazole scaffolds integrated with a pyrazoline nucleus as anticancer and multi-targeting kinase inhibitors” (RSC Advances, 2021)

How the values were obtained:
MCF-7 cells [1] = test: Annexin V-FITC/PI apoptosis assay; format: cell-based, human; details: MCF-7, 24 h, at IC50 (4.021 μM for 1, 8.35 μM for 3c)
Method: More details in the ESI. ^†
The apoptotic mode of cell death induced by compounds 1 and 3c was further determined to find out whether the cell death was due to apoptosis or necrosis. This assay was carried out using annexin V/PI assay. Annexin V conjugated with FITC was utilized to stain cells in combination with PI.[63] The cells which stained positive for annexin V/PI indicated the cells in the late apoptotic stage which have lost the integrity of their membranes.[63] […] Then staining of MCF-7 cells was carried out using two dyes; annexin V/propidium iodide (PI). Flow cytometry technique has detected the corresponding red (PI) and green (FITC) fluorescence. […] It was observable that the late apoptosis percentage caused by compounds 1, 3c was higher than that of the early phase making it more challenging to recover the apoptotic cells to the safe ones. The obtained results investigated that apoptosis was one of the main mechanisms of compounds 1, 3c to inhibits cancer cell proliferation (Fig. 5).
screening of final compounds.
using 1 μM concentration of ATP.
1.2.4. Annexin V-FITC apoptosis assay
Briefly, cells were seeded
Data was collected from three individual

S. aureus 25923 = test: Agar well diffusion, inhibition zone; format: cell-based; details: Staphylococcus aureus, 25923, read-out: Mean diameter of inhibition zone (mean ± SEM) S. aureus 25923
E. faecalis = test: Agar well diffusion, inhibition zone; format: cell-based; details: Enterococcus faecalis, read-out: Mean diameter of inhibition zone (mean ± SEM) E. faecalis
MCF-7 cells [2] = test: In vitro cytotoxicity, MTT assay, MCF-7; details: Homo sapiens, MCF7, read-out: IC50 MCF-7
HepG-2 cells = test: In vitro cytotoxicity, MTT assay, HepG-2; details: Homo sapiens, HepG2, read-out: IC50 HepG-2
WI-38 cells = test: Cytotoxicity against normal fibroblasts WI-38 (safety); details: Homo sapiens, WI-38, read-out: IC50 WI-38
BRAF^V600E = BRAF^V600E (Homo sapiens, UniProt P15056, V600E); test: BRAFV600E kinase inhibitory assay (Reaction Biology HotSpot, 33P-ATP, MEK1 substrate)
EGFR = EGFR (Homo sapiens, UniProt P00533); test: EGFR kinase inhibitory assay (Kinase-Glo Max luminescence)

SMILES | necrotic percent (MCF-7 cells [1]) | zone of inhibition at 500 µg/mL (S. aureus 25923) | zone of inhibition at 500 µg/mL (E. faecalis) | IC50 (MCF-7 cells [2]) | IC50 (HepG-2 cells) | IC50 (WI-38 cells) | IC50 (BRAF^V600E) | early apoptosis (MCF-7 cells [1]) | late apoptosis (MCF-7 cells [1]) | IC50 (EGFR)
Cc1c(NC2=NC(=O)CS2)c(=O)n(-c2ccccc2)n1C [Compound 1, 2-((1,5-Dimethyl-3-oxo-2-phenyl-2,3-dihydro-1H-pyrazol-4-yl)amino)thiazol-4(5H)-one] | 9.55% | 31 ± 0.17 mm | 28 ± 0.92 mm | 4.02 ± 0.02 µM | 4.52 ± 0.04 µM | 60.4 µM | 2.03 ± 0.5 µM |  |  | 
Cc1c(Nc2nc3c(C(=O)NN)c(N)sc3s2)c(=O)n(-c2ccccc2)n1C [Compound 3c, 5-Amino-2-((1,5-dimethyl-3-oxo-2-phenyl-2,3-dihydro-1H-pyrazol-4-yl)amino) thieno[3,2-d]thiazole-6-carbohydrazide] | 8.42% |  |  | 8.35 ± 0.03 µM | 7.88 ± 0.01 µM | 54.7 µM | 0.088 ± 0.01 µM | 1.92% | 9.28% | 0.017 ± 0.05 µM
